B1: LINE1-mini (parent)
chain: GGCAGAGCUCAACACAGCGUGGCAAAGUGGCUGUGGCUAGACUGCC

Read counts are not given, so values of variants with three or more changes are uncertain.

The variants in this data set derive from B1. The experiment in a line: self-cleavage, relative activity (ratio to wild type); higher = more cleavage; in vitro, sequencing; the parent is a self-cleaving ribozyme.
As for GGCAGAGCGCUACACAGCGUGGCAAAGUGGCUGUGGCUAGACCGCC [U9G A11U U43C], the self-cleavage stood at 0.01.
CACAGAGCUCAACACAGCGUGGCAAAGUGGCUGUGGUUAGACUGCC [G1C G2A C37U]: the self-cleavage came to 0.05.
On to GGCAGAGCUCAACAGAGCGUAGCAAAAUGGCUUUGGCUAGACUGCG [C15G G21A G27A G33U C46G], for which the self-cleavage turned out to be 0.13.
As for GGCAGAGCUCAACAAAGCGUGGCAAUGUGGCUUUCGCUAGACUGAC [C15A A26U G33U G35C C45A], the self-cleavage came to 0.07.
In the case of GGCAGAGCUCAACAGAGCGUGGCAAAGUGGCUCUGGCUAGACUGCA [C15G G33C C46A], the self-cleavage was found to be 0.09.
AGCAGAACUCAACACCGCGGGGCAAAGUGUCUGUGGCUAGACUGCC [G1A G7A A16C U20G G30U]: the self-cleavage was determined as 0.26.
Turning to GGAGGAGCUCAACACAGCGUGACAAAGUGGCUGUGGCUAGAAUGCC [C3A A4G G22A C42A], the self-cleavage was 0.19.
Turning to GGCAGAGCUCAACGCAGCGUUGCCAAGUGGCUGUGGCUAGACUGCC [A14G G21U A24C], the self-cleavage was found to be 0.38.
Under GCCAGAGCUCAACUCUACGUCGCAAAGUGGCUGUGGCUAGACUGCC [G2C A14U A16U G17A G21C] stands 0.07; under GGCAGACCUAAACACAGUGUGGCAAAGUGAUUGUGGCUAGACUGCC [G7C C10A C18U G30A C31U], 0.03; under GGCAGAGGUCAACACAGCGUGGCAAAGUGGCUUAGGCUAGACUGCC [C8G G33U U34A], 0.06.
On to GUCAGAGCUCAACACUGCGUGGGAAAGUGGCUGUGGCUAGACUGCC [G2U A16U C23G], for which the self-cleavage stood at 0.
In the case of GGCAGUACUCAACACAGCGUGGCAAAGCGGCUGUAGCUAGACUGCC [A6U G7A U28C G35A], the self-cleavage came out at 0.21.
GGCAGAGCUCAACACAGCGUGGCAACGUUGCUGUGACUAGACUGCC [A26C G29U G36A]: the self-cleavage came out at 0.1.
As for GGCAGUGCUCAACUCGGCGUGGCAAAGUGGCUGUGGCUAGACUGCC [A6U A14U A16G], the self-cleavage was 0.
Consider GGCAGUACUCAACACGGCGUGGCAAAGUGGCUGUGGCUAGACUGCC [A6U G7A A16G], for which the self-cleavage came out at 0.07.
Take AGCAGAGCUCAUCCCCGCGUGGCAAAGUGGCUGACGCGAGACUGCC [G1A A12U A14C A16C U34A G35C U38G]: the self-cleavage came to 0.01.
As to GGCAGAGAUCAACACAGUGUGGCAAAGUGGCUGUGGCUCGACUGCC [C8A C18U A39C], the self-cleavage was 0.29.
As to GGAAGAGCUCUACACAGCGUGGCAAAGUGGCUGUGGCUAGACUGCG [C3A A11U C46G], the self-cleavage came to 0.04.
On to GGCAGAGCUCCACACAGCGUGGCAUAGUGGCUGUGACUAGACUGCC [A11C A25U G36A], for which the self-cleavage stood at 0.01.
As for GGCAGAGUUCAACACAGCGUACAAAAGAGGCUGUGGCUAGACUGAC [C8U G21A G22C C23A U28A C45A], the self-cleavage came to 0.03.
For CGCAUCGCUCAACACAGCGUGGCAAAGUGGCUCUGGCUAGACUUCU [G1C G5U A6C G33C G44U C46U], the self-cleavage turned out to be 0.03.
In the case of GGUAGAGCUCAACACAGCGUGGCAAAGUCGCUUUGGCUAGACUGCC [C3U G29C G33U], the self-cleavage was found to be 0.03.
For GGCAGAGCUCAACACAGCGUGGAAAAGUGUCUUUGGCUAGACUGCG [C23A G30U G33U C46G], the self-cleavage was found to be 0.07.
Consider GGCAGAGCUCACCACAGCGUGGCAAAGCGGCUGUCGCUAGACUGCC [A12C U28C G35C], for which the self-cleavage is 0.01.
Regarding GGCAGCGCUCUACACAGCGUGGCAAAGUGGCUGUGGCUAUACUGCC [A6C A11U G40U], the self-cleavage turned out to be 0.
For the variant GGCAGAGCUCAACACAGAUUGGCUAAGUGGCUGUGGCUAGACAGCC [C18A G19U A24U U43A], the self-cleavage is 0.01.
In the case of GGCAGAGCUGGCUACAGCGUGGCAAAGUGGCUGUGGCUAGACUGCC [C10G A11G A12C C13U], the self-cleavage is 0.04.
Turning to GGCAGAGCUCAACAAAGCGUGGCAAAGUGGCUGUGGCAAGAGUGCA [C15A U38A C42G C46A], the self-cleavage amounted to 0.01.
With GGCAGAGCUCAACCCAGCGUGGCAUAUUGGCUGUGGAUAGACUGCC [A14C A25U G27U C37A], the self-cleavage was 0.04.
Turning to GGGAGAGCUCAACACAGCGUGGCGGAGUGGCUGUGGCUAGAAUGCC [C3G A24G A25G C42A], the self-cleavage is 0.08.
For the variant GGCAGAGCUCUACACAGCGUGGCAAAGUGGCUGUCGCUGGCCUGCC [A11U G35C A39G A41C], the self-cleavage is 0.
For GGCAGAGCUCAACACAGCGUGGCAAAGUGGCGGUGGCUAAAUUCCC [U32G G40A C42U G44C], the self-cleavage was determined as 0.02.
With GACAGAGAUCAACUCAGCGUGGCAAAGUGGCUGUGGCUAGACUGCC [G2A C8A A14U], the self-cleavage worked out at 0.39.
Consider AGCCGAGCUCAACACAACGUGCCAAAGUGCCUGUGGCUAGACUGCC [G1A A4C G17A G22C G30C], for which the self-cleavage was 0.03.
Regarding GGCACAGCUCAACACAGCGUGGCCAAGUGGCUGUGGAUAGAUUGCC [G5C A24C C37A C42U], the self-cleavage stood at 0.04.
Under GGCAGAGCUCAACACAGCGUGGCAAAAUGGUUGUGGCGAGACUGCC [G27A C31U U38G] stands 0.03; under GACAGAGCUCAACACACCGUGGCAAAGUGUCUGUUGCUAUACUGCC [G2A G17C G30U G35U G40U], 0.07; under GGCAUAGCUCAACACAGCCAGGCUAAGUGGCUGUGGCUAGACUGCC [G5U G19C U20A A24U], 0.
For GGCAGAUCUCACCUCAGCGUGGCAAAGUGGCUGUGGCUAGAGUUCC [G7U A12C A14U C42G G44U] the value was 0.03; for GGGAGAGCUCAACACAGCGUCACAAUGUGGCUGUGGCUAGACUGUC [C3G G21C G22A A26U C45U], 0.19.
Under GGUAGAGCUCAGCAGAGCGUGGCAAAGUGGCUGUGGCUAGACUGCC [C3U A12G C15G] stands 0.
Regarding GGCAGAUCUCAACACAGAGUGGACAAGUAGCUGUGUUUAGACUGCC [G7U C18A C23A A24C G29A G36U C37U], the self-cleavage was 0.01.
Consider GGCAGAGCUCAACACGGCGUGGCAAAGUGGAUGAAGCUGACCAGCC [A16G C31A U34A G35A A39G G40A A41C U43A], for which the self-cleavage worked out at 0.
Under GGCAAAGCUCAACACAGCGUGGCAAAGUGGCGGUGGCUCGACUGGC [G5A U32G A39C C45G] stands 0.07; under GGCAGAGCUCGUCACAGCGUGGAAAAGUGGCGGUGGCUAGACUGCC [A11G A12U C23A U32G], 0.03; under GGCAGAACCCAACACAGCGUGGCAAAGUGGCUGUGGCUAGAGUGCC [G7A U9C C42G], 0.02.
For GGUAGAGCUCAACAAAGCGUGGCAAGGUGGCUUUGGCUAGACUGUC [C3U C15A A26G G33U C45U], the self-cleavage is 0.04.
Under GGCAGAGCUCAACACAGCGUGGCAAAGUGUAUGUGGCUAGACAGCC [G30U C31A U43A] stands 0.06; under CGCAGAGCUCAACACAGAGUGGCAAAGUGGCUGUGGCUGGCCUGCC [G1C C18A A39G A41C], 0.
For GGCAGAGCUCAACACAGCGUGUCAAAGUGGCUUUGAAUAGUCUGCC [G22U G33U G36A C37A A41U] the value was 0.11.
As for GGCAGAGCUAAACACAGCGUGGCCCAGUGGCUGUGGCUAGACUGCC [C10A A24C A25C], the self-cleavage stood at 0.01.
With GGCAGCGCUCAACACAGCGUGGCAAAGUCGCUGUGGCUAGAGUGCC [A6C G29C C42G], the self-cleavage worked out at 0.01.
For the variant GGCAGAGCUCAACAGAGCGUGGCAAAGUGGCUGUGGCUAGCCUGCA [C15G A41C C46A], the self-cleavage was 0.03.
For GGCAGCGCUAAACACAGUGUGGCAAAGUGGCUGUGGCAAGACUGCC [A6C C10A C18U U38A], the self-cleavage was 0.08.
In the case of GGCAGAGCUCAACGCAGCGUGGGAAAGUGGCUGUGGCUAGACUGCA [A14G C23G C46A], the self-cleavage stood at 0.18.
